Laboratory results taken from PubChem BioAssay AID1030 (National Center for Advancing Translational Sciences (NCATS), 2008).
Among all 220,000 compounds or so, about 16,000 (7.3%) were called active. This list was built around the results that the source calls inconclusive (neither active nor inactive); the mix of calls is not that of the screen. Calls come from the whole dose curve; as a rule, active = well fitted inhibition curve with a large enough effect (not every such curve was filed as active); inconclusive = small, poorly fitted or top-dose-only effect, or another doubt; inactive = no such curve, though single readings can be large or run the other way. Potencies of inconclusive entries are left out as doubtful fits.

The compounds below were run against Aldehyde dehydrogenase 1A1 (Homo sapiens) (UniProt P00352) (assay: qHTS Assay for Inhibitors of Aldehyde Dehydrogenase 1 (ALDH1A1)). Conditions: Purified ALDH1A1, NADH fluorescence, propionaldehyde substrate; series mostly up to 75.3 µM; activity, negative = inhibition: at the top concentration.
Chain of UniProt P00352 (P00352 whole entry, looked up): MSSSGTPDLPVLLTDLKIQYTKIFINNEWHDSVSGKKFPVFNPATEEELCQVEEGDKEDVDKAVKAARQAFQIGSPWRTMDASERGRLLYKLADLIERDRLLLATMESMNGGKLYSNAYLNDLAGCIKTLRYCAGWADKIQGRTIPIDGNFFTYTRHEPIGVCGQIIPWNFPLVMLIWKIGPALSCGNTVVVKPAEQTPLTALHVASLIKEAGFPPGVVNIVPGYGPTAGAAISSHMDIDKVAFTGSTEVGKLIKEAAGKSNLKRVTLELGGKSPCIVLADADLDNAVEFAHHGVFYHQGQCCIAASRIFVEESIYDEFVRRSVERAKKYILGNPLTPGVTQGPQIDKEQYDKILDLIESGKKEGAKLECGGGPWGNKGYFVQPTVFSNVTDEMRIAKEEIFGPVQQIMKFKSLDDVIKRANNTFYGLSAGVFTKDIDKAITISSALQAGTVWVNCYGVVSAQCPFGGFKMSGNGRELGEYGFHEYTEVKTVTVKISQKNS
Potency is the fitted concentration of half-maximal effect; tags give direction and shape of the fitted curve.
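Throughout, for activity, negative = inhibition: plate controls were no enzyme wells and a reference inhibitor.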

Structure (SMILES) | Potency | activity, negative = inhibition
S=C(NCCCn1ccnc1)Nc1cccc(Cl)c1 | inconclusive [inhibitor, single point] | –
COc1ccc(C(=O)Nc2ccc(OC)c(OC)c2)cc1 | inconclusive [inhibitor, single point] | –
CCOc1ccc(CN(Cc2ccco2)S(=O)(=O)c2ccc(-n3cnnn3)c(OC)c2)cc1 | inconclusive [inhibitor, single point] | –
C=CCSc1nc(NC)c2sccc2n1 | – | inactive: -3.81%
CC(C)Oc1ccc(N2CC(C(=O)Nc3ccc(N4CCOCC4)cc3)CC2=O)cc1 (stereo not drawn) | inconclusive [inhibitor, single point] | –
COc1ccc(C(=O)CN2CCN(c3ccc(F)cc3)CC2)cc1OC | active: 12.6 µM | –
CCCn1c(SCC(=O)c2ccc3c(c2)NC(=O)CO3)nc2ccccc21 | active: 3.16 µM | –
CCCCCC(=O)Nc1nc(C)c(-c2csc(Nc3ccccc3OC)n2)s1 | inconclusive [inhibitor, single point] | –
COCCn1c(SCc2ccccc2F)nc2ccccc2c1=O | inconclusive [inhibitor, single point] | –
Cc1ccc2nc(NC(=O)c3ccc4c(c3)OCO4)sc2c1 | inconclusive [inhibitor, single point] | –
Cc1cc(C)c(C#N)c(SCC(=O)N2CCCCC2)n1 | active: 12.6 µM | –
COc1ccc(NC(=O)N2c3ccc(OC)cc3C(C)=CC2(C)C)cc1 | inconclusive [inhibitor, partial curve] | –
CCCCN(CC)Cc1ccc(CNC(=O)Nc2ccc(F)cc2)o1 | – | inactive: -0.619%
Nc1cccnc1Sc1cccc(Cl)c1 | inconclusive [inhibitor, partial curve] | –
COC(=O)CNC(=O)[C@@]1(C)C=C[C@@H](Cc2ccccc2)N1C(=O)OC | inconclusive [inhibitor, full curve, poor fit] | –
Cc1ccc(OCC(=O)OCC(=O)c2c(N)n(C)c(=O)n(C)c2=O)cc1C | – | inactive: 13.2%
Cc1ccccc1Nc1nc(N)nc(COC(=O)CCS(=O)(=O)c2ccccc2)n1 | inconclusive [inhibitor, single point] | –
Cc1nn(C)c(C)c1/C=N/O | – | inactive: -11.2%
COc1cccc(C(=O)N2CCN(C(=O)c3cccs3)CC2)c1OC | active: 22.4 µM | –
CC(/C=N/Nc1nc(C)cc(C)n1)=C\c1ccc(C(C)C)cc1 | – | inactive: 5.54%
COC(=O)c1sccc1NC(=O)CSc1cccc(Cl)c1Cl | – | inactive: -15.5%
CCCOc1ccc(N2C(=O)CC(N(CCOC34CC5CC(CC(C5)C3)C4)C(C)=O)C2=O)cc1 (stereo not drawn) | inconclusive [inhibitor, partial curve, poor fit] | –
CN(C)c1ccc(N=Cc2nc(-c3ccccc3)oc2OC(=O)c2cccc(Cl)c2)cc1 | active: 12.6 µM | –
O=C(CCN1CCN(c2ccccc2F)CC1)c1ccc(Br)cc1 | inconclusive [inhibitor, single point] | –

Structure (SMILES) | Potency | activity, negative = inhibition
CCCn1c(C)cc(C(=O)COc2ccc(S(=O)(=O)N(CC)CC)cc2[N+](=O)[O-])c1C | inconclusive [inhibitor, partial curve] | –
CC1CCc2c(sc(N)c2C(N)=O)C1 (stereo not drawn) | active: 12.6 µM | –
CCC(C)N1C(=O)CN(C2CCCCCC2)C(=O)C1c1ccccc1F (stereo not drawn) | active: 15.8 µM | –
O=c1ccc(NS(=O)(=O)c2ccccc2Cl)cn1Cc1ccc(Cl)c(Cl)c1 | inconclusive [inhibitor, single point] | –
Cc1ccc(C(=O)NCc2ccco2)cc1S(=O)(=O)N1CCOCC1 | inconclusive [inhibitor, single point] | –
O=C(CSc1ncn[nH]1)NC1CC2CCC1C2 (stereo not drawn) | inconclusive [inhibitor, single point] | –
CC(=O)NCCOc1nc(N2CCCCC2)nc(N2CCCCC2)n1 | inconclusive [inhibitor, single point] | –
N#Cc1nc(COc2ccc(F)cc2)oc1N1CCC(Cc2ccccc2)CC1 | inconclusive [inhibitor, single point] | –
C=CCNC(=S)NNC(=O)c1ccc(OCCCC)cc1 | – | inactive: 0.323%
CNc1nc2sc3c(c2c(=O)n1C)CC(C)(C)SC3 | inconclusive [inhibitor, single point] | –
Cn1cccc1Cc1nnc(SCC(=O)NCc2ccccc2Cl)n1-c1ccc(F)cc1 | – | inactive: -12.6%
CCN(CC)S(=O)(=O)c1cccc(NC(=O)COC(=O)C2CC3C=CC2C3)c1 (stereo not drawn) | inconclusive [inhibitor, partial curve] | –
CC(C)(C)Sc1ccccc1S(=O)(=O)C(C)(C)C | – | inactive: 6.1%
O=C(OCC(=O)c1ccc(Cl)cc1Cl)c1ccc2c(c1)C(=O)N(c1cccc3ncccc13)C2=O | inconclusive [inhibitor, single point] | –
O=C(c1ccccc1)c1cc(-c2ccccc2)on1 | inconclusive [inhibitor, single point] | –
O=C(/C=C/c1cccc([N+](=O)[O-])c1)OC1CCCCC1=O (stereo not drawn) | inconclusive [inhibitor, single point] | –
NS(=O)(=O)c1cccc(NC(=O)CCSc2ccc(Cl)cc2)c1 | inconclusive [inhibitor, single point] | –
O=C(/C=C/c1ccccc1)NCC(=O)N/N=C/c1ccccc1[N+](=O)[O-] | inconclusive [inhibitor, partial curve, poor fit] | –
O=S(=O)(c1c(Cl)sc(Cl)c1Br)N1CCCC1 | active: 14.1 µM | –
Cn1c(CN2CCCC2)nc2cc(NC(=O)COc3ccc([N+](=O)[O-])cc3)ccc21 | – | inactive: -6.15%
COc1ccccc1NC(=O)CN(Cc1ccco1)C(=O)c1ccc(Cl)nc1 | active: 15.8 µM | –
Cc1c(C(=O)COC(C)(C)C)[nH]c2ccccc12 | active: 6.31 µM | –
Clc1cccc(CSc2nnc(-c3cccnc3)n2Cc2ccco2)c1 | – | inactive: -3.63%
CCCCc1nnc(NC(=O)C2CCCO2)s1 (stereo not drawn) | inconclusive [inhibitor, single point] | –
